Measurements: PubChem BioAssay AID1347120 (National Center for Advancing Translational Sciences (NCATS), 2019)
The whole screen tested about 390,000 compounds, of which about 930 (0.24%) were called active. Inconclusive results, whose numbers are uncertain, are shown with a selection of clear calls. The call rests on the fitted dose curve; in most records, active means well fitted activation curve with a large enough effect; inconclusive means small, poorly fitted or top-dose-only effect; inactive means no such curve, though single readings can be large or run the other way. A potency beside an inconclusive call is a rough fit, not a confirmed value.
Potency means the concentration at half of the fitted maximal effect; tags describe the fitted curve by direction and shape.

Assay: qHTS for Suppressors of FUS Proteinopathy: Primary screen using FUS-linked yeast assay; further: nearly all actives have a fitted effect of over 55% in size
Details: S. cerevisiae FUS-expressing, OD600, 24 h; Potency: growth rescue; series mostly up to 76.6 µM
Outline: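 Compound concentration series was pinned onto galactose-induced FUS-expressing yeast seeded at OD 0.005. Plates sat 24hr at 30C; absorbance at 600 nm gave growth. DMSO served as background control.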
For `CCOc1ccccc1N1CCN(C(=S)NCc2ccc(Cl)cc2)CC1`, the Potency was inconclusive: 50.1 µM [activator, single point].
For `O=S(=O)(c1cccc(S(=O)(=O)N2CCC(n3nnc4ccccc43)CC2)c1)N1CCCCC1`, the Potency was inconclusive: 31.6 µM [activator, single point].
For `COc1cc(OC)c(NC(=O)C(Cc2ccccc2)NS(=O)(=O)c2cccc3nsnc23)cc1Cl` (stereo not drawn), the Potency was inconclusive: 10 µM [activator, full curve].
In the case of `CC(=O)Nc1cc(-c2cccc(F)c2)cn2c(-c3ccc(S(C)(=O)=O)cc3)cnc12`, the Potency is reported as inconclusive: 35.5 µM [activator, single point].
In the case of `C#CCN(C[C@H]1[C@H](OC(=O)NCCCCCC)[C@H](OC(=O)NCCCCCC)C[C@H]2C(=O)N(c3ccccc3)C(=O)[C@@H]12)S(=O)(=O)c1ccc(C)cc1`, the Potency is reported as inconclusive: 50.1 µM [activator, single point].
With `COc1ccc(CC(=O)Nc2cc(-c3cn4cccnc4n3)ccc2OC)cc1` the Potency was “inactive”.
With `CCS(=O)(=O)c1ccccc1C(=O)Nc1ccc(-c2nc3ccccc3s2)cc1` the Potency was “inactive”.
With `N#CCC(=O)N/N=C\c1ccccc1OC/C=C/c1ccccc1` the Potency was inconclusive: 17.8 µM [activator, partial curve].
With `COc1ccc2c(c1)cc(C(=O)N/N=C/c1c(O)c(C(=O)O)cc3ccccc13)n2C` the Potency was inconclusive: 7.08 µM [activator, partial curve].
In the case of `Cc1cc(NC(=O)CSc2nc3c([nH]c4ccccc43)c(=O)n2-c2cccc(C(F)(F)F)c2)no1`, the Potency is reported as inconclusive: 3.98 µM [activator, full curve, poor fit].
With `Cc1ccc(-c2nc(CC(=O)Nc3cccc(S(=O)(=O)NC4=NCCC4)c3)cs2)cc1` the Potency was inconclusive: 15.8 µM [activator, partial curve].
In the case of `COC(=O)[C@]12C=CCN1[C@@H](c1ccc(C(F)(F)F)cc1)c1c(c3ccccc3n1S(=O)(=O)c1ccc(C)cc1)C2`, the Potency is reported as “inactive”.
With `Cc1ccc([C@H]2C[C@H](n3cc(-c4ccc(F)cc4)nn3)[C@@H](O)CN2CC2CCCCC2)cc1` the Potency was inconclusive: 31.6 µM [activator, single point].
For `CC(C)(C)c1ccc(-c2nnc(SCC(=O)Nc3cccc4ccccc34)n2Cc2ccco2)cc1`, the Potency was inconclusive: 20 µM [activator, partial curve, poor fit].
With `CN(C)C(CNC(=O)/C=C/c1cccc(Cl)c1)c1ccccc1` (stereo not drawn) the Potency was “inactive”.
For `O=C(Nc1ccc(NC(=O)c2cc([N+](=O)[O-])ccc2N2CCOCC2)cc1)c1cccs1`, the Potency was inconclusive: 12.6 µM [activator, partial curve, poor fit].
For `CC(Sc1nnc(CNc2cccc3ccccc23)n1-c1ccccc1)C(=O)N/N=C/c1ccco1` (stereo not drawn), the Potency was inconclusive: 20 µM [activator, single point].
With `COC(=O)c1c(-c2ccc3ccccc3c2)csc1NC(=O)Cc1ccc(OC)c(OC)c1` the Potency was inconclusive: 8.91 µM [activator, partial curve].
With `COCCNC(=O)CN1C(=O)c2cccnc2Oc2ccc(Cl)cc21` the Potency was “inactive”.
With `CCCCOC(=O)CSc1n[nH]c(=O)[nH]c1=O` the Potency was “inactive”.
With `O=C(OCC(=O)N(CCc1ccccc1)Cc1ccccc1)c1ccc(F)c(S(=O)(=O)N2CCOCC2)c1` the Potency was inconclusive: 15.8 µM [activator, partial curve, poor fit].
In the case of `O=C(c1cc2cc(Cl)ccc2[nH]1)N1CCN(Cc2ccc3c(c2)OCO3)CC1`, the Potency is reported as inconclusive: 3.16 µM [activator, full curve].
In the case of `CCOc1ccc(NS(=O)(=O)c2ccc(NS(=O)(=O)c3ccc(SC)cc3)cc2)cc1`, the Potency is reported as active: 28.2 µM.
For `CC(C)(C)C(=O)Nc1cc(S(=O)(=O)N2CCCCC2)ccc1N1CCCCC1`, the Potency was inconclusive: 31.6 µM [activator, partial curve, poor fit].
For `COc1cc(NC(=O)Cn2c(-c3cncs3)nc3ccccc32)cc(OC)c1OC`, the Potency was inconclusive: 44.7 µM [activator, partial curve, poor fit].
In the case of `N=C1/C(=C/c2cccs2)C(=O)N=C2SN=C(SCc3ccccc3)N12`, the Potency is reported as inconclusive: 14.1 µM [activator, partial curve, poor fit].
In the case of `Cc1ccnc(NC(=O)CSc2cc(=O)n(C)c3ccccc23)c1`, the Potency is reported as inconclusive: 44.7 µM [activator, partial curve, poor fit].
With `COc1ccc(NC(=O)Cn2cc(S(=O)(=O)Cc3ccccc3)c3ccccc32)c(OC)c1` the Potency was inconclusive: 35.5 µM [activator, single point].
For `Cc1ccc(Cl)cc1NC(=O)c1ccc(Cn2cc(Cl)cn2)cc1`, the Potency was “inactive”.
With `NC(=O)C1CCN(S(=O)(=O)c2ccc(N3CCCCS3(=O)=O)cc2)CC1` the Potency was “inactive”.
With `Cc1cc(NC(=O)CSC2=Nc3ccccc3C3=NC(Cc4ccccc4)C(=O)N23)n[nH]1` (stereo not drawn) the Potency was inconclusive: 44.7 µM [activator, single point].
With `CN(C)[C@@H]1CCN(c2cccc3c2S(=O)(=O)N2CC[C@H](C2)O3)C1` the Potency was “inactive”.
With `Cc1nn(C)c2c1c(-c1ccccc1)cc(=O)n2CC(=O)NC(C)C` the Potency was “inactive”.
In the case of `COc1ccc(Cl)cc1NC(=O)CN1CCN(S(=O)(=O)N2CCC(C)CC2)CC1`, the Potency is reported as inconclusive: 12.6 µM [activator, partial curve].
For `Cc1ccc(S(=O)(=O)NC(C)C(c2cccs2)N2CCN(c3ccccc3)CC2)cc1` (stereo not drawn), the Potency was inconclusive: 28.2 µM [activator, single point].
In the case of `Cc1ccc(CN2CCCn3nc(C(=O)NCCc4cccc(C)c4)cc3C2=O)cc1`, the Potency is reported as inconclusive: 39.8 µM [activator, single point].
In the case of `CCCS(=O)(=O)c1c(S(=O)(=O)CCC)c2c(N)cccn2c1C(=O)c1ccc(OC)cc1`, the Potency is reported as inconclusive: 39.8 µM [activator, partial curve, poor fit].
With `CCc1cc(-c2nnn(CCC3COCCO3)c2CC)ccc1-c1cn(Cc2ccccc2)nn1` (stereo not drawn) the Potency was inconclusive: 22.4 µM [activator, single point].
